# The list shows a part of the results.
# B1: LICBM33A (Lactococcus lactis), Q9CE94 (protein)
# chain: MKKLLTGLLVAAGLLSVSLLIKTDTVSAHGYVQSPPARGYQGQLDSQSLGWTAAFNIYGNVISNPQSLEAPKGFPECGPADGRIASANGGLGQIGDFVLDNQTSSRWKKTSISTGSNIFTWKYTAPHKTTKWHYYMTKTGWDQNAPLKHSELELIGTINHDGSPATNNLSHTINIPTDRSGYHIVLAVWDVADTSNAFYNVIDINVNNKNASSQVFGPFL
# Columns and labels:
# Assay in all cases: glycan array binding signal (z-score within array); higher = stronger binding
# Conditions in all cases: glycan notation: IUPAC condensed, linker removed
# Glc(b1-4)Glc = molecular target: Glc(b1-4)Glc
# How it was run: (§1)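 Glycan array data came from 3228 arrays in the Consortium for Functional Glycomics database, and only arrays with an available protein sequence were kept. Glycan names were put into IUPAC-condensed notation, and columns mapping to the same glycan were averaged. The binding signal is a within-array Z-score, averaged across arrays of one protein sequence run at different concentrations or buffers and across linkers. A negative Z-score can be read as non-binding.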
# Glc(b1-6)Glc = molecular target: Glc(b1-6)Glc
# How it was run: as §1
# GlcA(b1-3)Gal = molecular target: GlcA(b1-3)Gal
# How it was run: as §1
# GlcA(b1-3)GlcNAc = molecular target: GlcA(b1-3)GlcNAc
# How it was run: as §1
# GlcA(b1-6)Gal = molecular target: GlcA(b1-6)Gal
# How it was run: as §1
# [1] = molecular target: GlcA3S(b1-3)Gal(b1-4)GlcNAc(b1-2)Man
# How it was run: as §1
# [2] = molecular target: GlcA3S(b1-3)Gal(b1-4)GlcNAc(b1-3)Gal(b1-4)Glc
# How it was run: as §1
# [3] = molecular target: GlcNAc(a1-3)Gal(b1-4)GlcNAc
# How it was run: as §1
# [4] = molecular target: GlcNAc(a1-4)Gal(b1-3)GlcNAc
# How it was run: as §1
# [5] = molecular target: GlcNAc(a1-4)Gal(b1-4)GalNAc
# How it was run: as §1
# [6] = molecular target: GlcNAc(a1-4)Gal(b1-4)GlcNAc
# How it was run: as §1
# [7] = molecular target: GlcNAc(a1-4)Gal(b1-4)GlcNAc(b1-3)Gal(b1-4)Glc
# How it was run: as §1
# [8] = molecular target: GlcNAc(a1-4)Gal(b1-4)GlcNAc(b1-3)Gal(b1-4)GlcNAc
# How it was run: as §1
# [9] = molecular target: GlcNAc(a1-4)Gal(b1-4)GlcNAc(b1-3)Gal(b1-4)GlcNAc(b1-3)Gal(b1-4)GlcNAc
# How it was run: as §1
# [10] = molecular target: GlcNAc(a1-4)Gal(b1-4)GlcNAc(b1-3)Gal(b1-4)[Fuc(a1-3)]GlcNAc(b1-3)Gal(b1-4)[Fuc(a1-3)]GlcNAc
# How it was run: as §1
# [11] = molecular target: GlcNAc(a1-6)Gal(b1-4)GlcNAc
# How it was run: as §1
# [12] = molecular target: GlcNAc(b1-2)Gal(b1-3)GalNAc
# How it was run: as §1
# [13] = molecular target: GlcNAc(b1-2)Man(a1-3)[GlcNAc(b1-2)Man(a1-6)]Man(b1-4)GlcNAc(b1-4)GlcNAc
# How it was run: as §1
# [14] = molecular target: GlcNAc(b1-2)Man(a1-3)[GlcNAc(b1-2)Man(a1-6)]Man(b1-4)GlcNAc(b1-4)[Fuc(a1-6)]GlcNAc
# How it was run: as §1
# [15] = molecular target: GlcNAc(b1-2)Man(a1-3)[GlcNAc(b1-4)][GlcNAc(b1-2)Man(a1-6)]Man(b1-4)GlcNAc(b1-4)GlcNAc
# How it was run: as §1
# [16] = molecular target: GlcNAc(b1-2)Man(a1-3)[GlcNAc(b1-4)][GlcNAc(b1-2)Man(a1-6)]Man(b1-4)GlcNAc(b1-4)[Fuc(a1-6)]GlcNAc
# How it was run: as §1
# [17] = molecular target: GlcNAc(b1-2)[GlcNAc(b1-4)]Man(a1-3)[GlcNAc(b1-2)Man(a1-6)]Man(b1-4)GlcNAc(b1-4)GlcNAc
# How it was run: as §1
# [18] = molecular target: GlcNAc(b1-2)[GlcNAc(b1-4)]Man(a1-3)[GlcNAc(b1-4)][GlcNAc(b1-2)Man(a1-6)]Man(b1-4)GlcNAc(b1-4)GlcNAc
# How it was run: as §1
# [19] = molecular target: GlcNAc(b1-2)[GlcNAc(b1-4)]Man(a1-3)[GlcNAc(b1-4)][GlcNAc(b1-2)[GlcNAc(b1-6)]Man(a1-6)]Man(b1-4)GlcNAc(b1-4)GlcNAc
# How it was run: as §1
# [20] = molecular target: GlcNAc(b1-2)[GlcNAc(b1-4)]Man(a1-3)[GlcNAc(b1-4)][GlcNAc(b1-2)[GlcNAc(b1-6)]Man(a1-6)]Man(b1-4)GlcNAc(b1-4)[Fuc(a1-6)]GlcNAc
# How it was run: as §1
# [21] = molecular target: GlcNAc(b1-2)[GlcNAc(b1-6)]Man(a1-6)[GlcNAc(b1-2)Man(a1-3)]Man(b1-4)GlcNAc(b1-4)GlcNAc
# How it was run: as §1
# [22] = molecular target: GlcNAc(b1-2)[GlcNAc(b1-6)]Man(a1-6)[GlcNAc(b1-2)Man(a1-3)]Man(b1-4)GlcNAc(b1-4)[Fuc(a1-6)]GlcNAc
# How it was run: as §1
# [23] = molecular target: GlcNAc(b1-2)[GlcNAc(b1-6)]Man(a1-6)[GlcNAc(b1-4)][GlcNAc(b1-2)Man(a1-3)]Man(b1-4)GlcNAc(b1-4)GlcNAc
# How it was run: as §1
# GlcNAc(b1-3)Fuc = molecular target: GlcNAc(b1-3)Fuc
# How it was run: as §1
# GlcNAc(b1-3)Gal = molecular target: GlcNAc(b1-3)Gal
# How it was run: as §1
# [24] = molecular target: GlcNAc(b1-3)Gal(b1-3)GalNAc
# How it was run: as §1
# GlcNAc(b1-3)Gal(b1-4)Glc = molecular target: GlcNAc(b1-3)Gal(b1-4)Glc
# How it was run: as §1
# [25] = molecular target: GlcNAc(b1-3)Gal(b1-4)GlcNAc
# How it was run: as §1
# [26] = molecular target: GlcNAc(b1-3)Gal(b1-4)GlcNAc(b1-2)Man(a1-3)[GlcNAc(b1-3)Gal(b1-4)GlcNAc(b1-2)Man(a1-6)]Man(b1-4)GlcNAc(b1-4)GlcNAc
# How it was run: as §1
# [27] = molecular target: GlcNAc(b1-3)Gal(b1-4)GlcNAc(b1-2)Man(a1-3)[GlcNAc(b1-3)Gal(b1-4)GlcNAc(b1-2)Man(a1-6)]Man(b1-4)GlcNAc(b1-4)[Fuc(a1-6)]GlcNAc
# How it was run: as §1
# [28] = molecular target: GlcNAc(b1-3)Gal(b1-4)GlcNAc(b1-2)[GlcNAc(b1-3)Gal(b1-4)GlcNAc(b1-6)]Man(a1-6)[GlcNAc(b1-3)Gal(b1-4)GlcNAc(b1-2)Man(a1-3)]Man(b1-4)GlcNAc(b1-4)GlcNAc
# How it was run: as §1
# [29] = molecular target: GlcNAc(b1-3)Gal(b1-4)GlcNAc(b1-3)Gal(b1-4)GlcNAc
# How it was run: as §1
# [30] = molecular target: GlcNAc(b1-3)Gal(b1-4)GlcNAc(b1-3)Gal(b1-4)GlcNAc(b1-2)Man(a1-3)[GlcNAc(b1-3)Gal(b1-4)GlcNAc(b1-3)Gal(b1-4)GlcNAc(b1-2)Man(a1-6)]Man(b1-4)GlcNAc(b1-4)GlcNAc
# How it was run: as §1
# [31] = molecular target: GlcNAc(b1-3)Gal(b1-4)GlcNAc(b1-3)Gal(b1-4)GlcNAc(b1-2)Man(a1-3)[GlcNAc(b1-3)Gal(b1-4)GlcNAc(b1-3)Gal(b1-4)GlcNAc(b1-2)Man(a1-6)]Man(b1-4)GlcNAc(b1-4)[Fuc(a1-6)]GlcNAc
# How it was run: as §1
# [32] = molecular target: GlcNAc(b1-3)Gal(b1-4)GlcNAc(b1-3)Gal(b1-4)GlcNAc(b1-2)[GlcNAc(b1-3)Gal(b1-4)GlcNAc(b1-3)Gal(b1-4)GlcNAc(b1-6)]Man(a1-6)[GlcNAc(b1-3)Gal(b1-4)GlcNAc(b1-3)Gal(b1-4)GlcNAc(b1-2)Man(a1-3)]Man(b1-4)GlcNAc(b1-4)[Fuc(a1-6)]GlcNAc
# How it was run: as §1
# [33] = molecular target: GlcNAc(b1-3)Gal(b1-4)GlcNAc(b1-3)Gal(b1-4)GlcNAc(b1-3)Gal(b1-4)GlcNAc(b1-2)Man(a1-3)[GlcNAc(b1-3)Gal(b1-4)GlcNAc(b1-3)Gal(b1-4)GlcNAc(b1-3)Gal(b1-4)GlcNAc(b1-2)Man(a1-6)]Man(b1-4)GlcNAc(b1-4)GlcNAc
# How it was run: as §1
# [34] = molecular target: GlcNAc(b1-3)Gal(b1-4)GlcNAc(b1-3)Gal(b1-4)GlcNAc(b1-3)Gal(b1-4)GlcNAc(b1-2)Man(a1-3)[GlcNAc(b1-3)Gal(b1-4)GlcNAc(b1-3)Gal(b1-4)GlcNAc(b1-3)Gal(b1-4)GlcNAc(b1-2)Man(a1-6)]Man(b1-4)GlcNAc(b1-4)[Fuc(a1-6)]GlcNAc
# How it was run: as §1
# [35] = molecular target: GlcNAc(b1-3)Gal(b1-4)GlcNAc(b1-3)Gal(b1-4)GlcNAc(b1-3)Gal(b1-4)GlcNAc(b1-2)[GlcNAc(b1-3)Gal(b1-4)GlcNAc(b1-3)Gal(b1-4)GlcNAc(b1-3)Gal(b1-4)GlcNAc(b1-6)]Man(a1-6)[GlcNAc(b1-3)Gal(b1-4)GlcNAc(b1-3)Gal(b1-4)GlcNAc(b1-3)Gal(b1-4)GlcNAc(b1-2)Man(a1-3)]Man(b1-4)GlcNAc(b1-4)[Fuc(a1-6)]GlcNAc
# How it was run: as §1
# [36] = molecular target: GlcNAc(b1-3)Gal(b1-4)GlcNAc(b1-3)Gal(b1-4)GlcNAc(b1-3)Gal(b1-4)GlcNAc(b1-3)Gal(b1-4)GlcNAc(b1-2)Man(a1-3)[GlcNAc(b1-3)Gal(b1-4)GlcNAc(b1-3)Gal(b1-4)GlcNAc(b1-3)Gal(b1-4)GlcNAc(b1-3)Gal(b1-4)GlcNAc(b1-2)Man(a1-6)]Man(b1-4)GlcNAc(b1-4)GlcNAc
# How it was run: as §1
# [37] = molecular target: GlcNAc(b1-3)Gal(b1-4)GlcNAc(b1-3)Gal(b1-4)GlcNAc(b1-3)Gal(b1-4)GlcNAc(b1-3)Gal(b1-4)GlcNAc(b1-2)Man(a1-3)[GlcNAc(b1-3)Gal(b1-4)GlcNAc(b1-3)Gal(b1-4)GlcNAc(b1-3)Gal(b1-4)GlcNAc(b1-3)Gal(b1-4)GlcNAc(b1-2)Man(a1-6)]Man(b1-4)GlcNAc(b1-4)[Fuc(a1-6)]GlcNAc
# How it was run: as §1
binder,measurement,setting,value
B1,glycan array binding signal (z-score),Glc(b1-4)Glc,-0.321
same,glycan array binding signal (z-score),Glc(b1-6)Glc,0.571
same,glycan array binding signal (z-score),GlcA(b1-3)Gal,-0.362
same,glycan array binding signal (z-score),GlcA(b1-3)GlcNAc,-0.435
same,glycan array binding signal (z-score),GlcA(b1-6)Gal,-1.11
same,glycan array binding signal (z-score),[1],-0.733
same,glycan array binding signal (z-score),[2],-0.244
same,glycan array binding signal (z-score),[3],-0.357
same,glycan array binding signal (z-score),[4],-0.555
same,glycan array binding signal (z-score),[5],-0.536
same,glycan array binding signal (z-score),[6],-0.621
same,glycan array binding signal (z-score),[7],-0.708
same,glycan array binding signal (z-score),[8],-0.4
same,glycan array binding signal (z-score),[9],-0.457
same,glycan array binding signal (z-score),[10],-0.819
same,glycan array binding signal (z-score),[11],-0.723
same,glycan array binding signal (z-score),[12],-0.103
same,glycan array binding signal (z-score),[13],0.585
same,glycan array binding signal (z-score),[14],0.279
same,glycan array binding signal (z-score),[15],0.06
same,glycan array binding signal (z-score),[16],-0.254
same,glycan array binding signal (z-score),[17],-1.28
same,glycan array binding signal (z-score),[18],-0.18
same,glycan array binding signal (z-score),[19],-0.369
same,glycan array binding signal (z-score),[20],-0.549
same,glycan array binding signal (z-score),[21],0.904
same,glycan array binding signal (z-score),[22],2.67
same,glycan array binding signal (z-score),[23],-0.104
same,glycan array binding signal (z-score),GlcNAc(b1-3)Fuc,-0.015
same,glycan array binding signal (z-score),GlcNAc(b1-3)Gal,-1.21
same,glycan array binding signal (z-score),[24],-0.258
same,glycan array binding signal (z-score),GlcNAc(b1-3)Gal(b1-4)Glc,-0.699
same,glycan array binding signal (z-score),[25],-0.369
same,glycan array binding signal (z-score),[26],-0.125
same,glycan array binding signal (z-score),[27],-0.978
same,glycan array binding signal (z-score),[28],-1.17
same,glycan array binding signal (z-score),[29],-0.448
same,glycan array binding signal (z-score),[30],0.07
same,glycan array binding signal (z-score),[31],-0.307
same,glycan array binding signal (z-score),[32],-0.509
same,glycan array binding signal (z-score),[33],-0.201
same,glycan array binding signal (z-score),[34],0.156
same,glycan array binding signal (z-score),[35],-0.443
same,glycan array binding signal (z-score),[36],4.98
same,glycan array binding signal (z-score),[37],1.45
